Results published in the supplement of paper PMC11417369.
± gives the standard deviation of the averaged measurements. The list shows a part of the results.

What follows are sequences tested on PfAP2-G AP2 domain (GST-tagged) (assay: gcPBM binding intensity (ln(normalized median fluorescence intensity)); higher = stronger DNA binding).
Procedure, shortened: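 Binding intensity values are the highest Masliner-normalised natural-log median intensity among replicate spots of either probe orientation. The binding step lasted 1 h in 1× PBS with 1% milk, 0.2 mg/ml BSA, 0.5% salmon testes DNA and 0.03% Triton X-100, using GST-tagged P. falciparum DNA-binding domains expressed in E. coli on an Agilent 4 × 180k array of primer-extended double-stranded 36-bp intergenic genomic probes plus negative controls. Alexa488 anti-GST antibody and a 488 nm scan detected bound protein.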

Row | Sequence | gcPBM binding intensity (ln)
1 | TATATATATATATGATGTACATGAAAATTTCCAAAA [XGTACX_site5472] | 11.2 ± 0.77
2 | CAATTTTACTCATAAACACACATATAGATGTTATTA [CACACA_site7474] | 9.95 ± 0.2
3 | AATAGTAAAAGATATACACACACCAAAAAATATAAT [CACACA_site5293] | 10.2 ± 0.12
4 | AATAATATTTAATACACACACCAGTTCTGCAAATTT [CACACA_site7712] | 10.3 ± 0.2
5 | GAAAAAAGAAATTAAACATGCATCTGCAAATTTAAA [TGCATGCA_site974] | 9.37 ± 0.35
6 | ACATAATAAAAATAAATTCATAAGTAAATAAATAAA [TGCATGCA_negctrl_site186] | 9.88 ± 0.24
7 | TGCTACATTTTATGTACACACATATACAGATATATA [CACACA_site4646] | 11.4 ± 0.88
8 | TGAATAAATCAAAGCACACATACACCCACATATATA [CACACA_site286] | 10.3 ± 0.31
9 | CTAAAAAATAGTAAAAGTACATAAATAATTTTGCTT [XGTACX_site8919] | 11.3 ± 0.83
10 | CATAAATTACTTTTTACACACTAAAATAAAATACAA [CACACA_site1135] | 10.2 ± 0.25
11 | AATACACGCAGACACACACACACACGCACATATATA [CACACA_site6447] | 10.3 ± 0.19
12 | ACAATTATTTTGTTCTTTAATGGTAGGTTCTATGTC [CACACA_negctrl_site1419] | 10.1 ± 0.14
13 | AAAAAAAAATATAACAGTACATAAACATATGAATAT [XGTACX_site7093] | 10.6 ± 0.3
14 | TTTTATAATTTCTTCTGTACATATATATGAAAATAT [XGTACX_site74] | 11 ± 0.72
15 | TCAACCAAAACATAAGCATGCAATATATTTTTATAC [TGCATGCA_site560] | 9.79 ± 0.099
16 | CACAAAGACACAAACACACACACACCCACATACATA [CACACA_site452] | 10.4 ± 0.4
17 | ATTTCCCTATATAGAGCATGCACTATATTCAAATGA [TGCATGCA_site531] | 9.915 ± 0.035
18 | AACAAAAACACTTTTACACACATAAGTAAAATATAT [CACACA_site1994] | 10.2 ± 0.26
19 | TACTTATTTAAAATAGTGCATGAATAGAAGATATAT [GTGCAC_site9756] | 10.1 ± 0.23

Row | Sequence | gcPBM binding intensity (ln)
20 | TTATATATTTTTATGTGTACTTATATATATATATAT [XGTACX_site6211] | 11.7 ± 1.1
21 | TAAAGAAACTATTCAACACACGGTCTAATTATTACA [CACACA_site1064] | 9.99 ± 0.014
22 | ATAAAAAAAATAAAAAGTACAAAAAAAAAAAATGGA [XGTACX_site136] | 11.3 ± 0.71
23 | ATACAATTTATTTTAACACACGAATGAATTGATTAT [CACACA_site4160] | 9.78 ± 0.26
24 | ATACAAATATACTTTTGTACGAAGAAATATATATAT [XGTACX_site3912] | 10.6 ± 0.41
25 | GGTTCATATCTTAACACACACATACATATTATAGAT [CACACA_site7392] | 10.2 ± 0.13
26 | TATAAATATATATTTTGTACTTAATATAAATTTATA [XGTACX_site7996] | 11 ± 0.62
27 | AAAAATAAACGACAGTGTACTAAATATTTAATTTTC [XGTACX_site3580] | 11.1 ± 0.65
28 | TATTCTAAAGAAATTACACACATGCAATGAAAAAAA [CACACA_site6895] | 9.74 ± 0.11
29 | CAGGGCAGGGGGAAGGGTACACATAAAAGAAAATAA [XGTACX_site172] | 11.7 ± 1.1
30 | AAAAGGAACAGACACACACACATATATAAATATGTA [CACACA_site7656] | 9.94 ± 0.25
31 | TTTAATCAATGATTTAATGAAAAAAGCAAAAAAAAA [GTGCAC_negctrl_site213] | 9.87 ± 0.18
32 | CGTTTGGTACACGTAGTGTTTTCGTTTGAATGTACC [GTGCAC_negctrl_site201] | 11.4 ± 0.94
33 | TTTAATTTTCCCTTCACACATAATATATATCTGTAT [CACACA_site5370] | 9.78 ± 0.028
34 | GACATATATAGCAATCGTACATATATTATAAAAGGT [XGTACX_site6891] | 11 ± 0.47
35 | TTTTTTTATATTATACGCACTAATATATATATATAT [XGTACX_negctrl_site40] | 10.4 ± 0.4
36 | TAACACTTTTTTTTTCGTACATATATTATATATATA [XGTACX_site5470] | 10.9 ± 0.42
37 | AAATAGACATAAAAAGGTACACAAATTGTGTATTAA [XGTACX_site527] | 11.4 ± 0.74
38 | TTATTAAAATATTAAAGTACAAAAAAAATAAATAAA [XGTACX_site6507] | 11.1 ± 0.6

Row | Sequence | gcPBM binding intensity (ln)
39 | TTATGTATATTATAAATTAATACATTTAAATTAATA [CACACA_negctrl_site34] | 9.575 ± 0.035
40 | GTATATAATTTATGTGCACACACTCCTATTTTTAGC [CACACA_site49] | 10.7 ± 0.42
41 | AATTATATTAATATATAATAAAATAGGATGTTATTT [XGTACX_negctrl_site309] | 9.52 ± 0.28
42 | CTTATTTTATGTTATACACACAAAGAAAAAAAATAA [CACACA_site2165] | 10.2 ± 0.2
43 | ATATATATATTTAAGGTGCGATTTTGTTATATTTAA | 9.9 ± 0.2
44 | TTTTTATTAGGACATGCATACAAAATTAAAAAAAAT [TGCATGCA_site258] | 10.5 ± 0.52
45 | AAAAAAAAAAAAAATTGTACCCAAATATTTTTGTAG [XGTACX_site8303] | 11.2 ± 0.62
46 | TATTAATTTATTTGTTGTACGTAAATATGCTTGTTT [XGTACX_site6591] | 11.6 ± 0.89
47 | TATAAAATACTGTATCGATGGGGGAGGGCGCAGGGG [TGCATGCA_negctrl_site250] | 11.6 ± 0.76
48 | AAAAAAAAAAAAAAAAAAAAAAAAAAAGATTATGAG [CACACA_negctrl_site1088] | 11.1 ± 0.6
49 | TTTTAAGTTTTTGAATGTACGTAATTTGTAAATTCT [XGTACX_site2448] | 11.2 ± 0.83
50 | TCAAATGTATATAATTGTACTTATCCTTTTCATTTT [XGTACX_site4879] | 11.2 ± 0.67
51 | AAAAATTAGAAACACACACACATATATATATATATT [CACACA_site1042] | 9.84 ± 0.13
52 | TAATGGAGAAAATAATGTACTTAGATATTTGTTCTA [XGTACX_site6312] | 10.8 ± 0.51
53 | TTACTTGTTTATTTTTTTTTTTTTTTTTTTTTTGTT [TGCATGCA_negctrl_site103] | 9.47 ± 0.028
54 | CATATATAGATATATACACACATATAGATTTTCTTT [CACACA_site6797] | 9.71 ± 0.16
55 | AACTATAATTAAAGGATGCACTTGAAGGCATTTCAA [GTGCAC_site9689] | 9.875 ± 0.007
56 | TATTCATAACAATGATGTACATATATTTTTTTTTTC [XGTACX_site5619] | 11.2 ± 0.71
